Assay results reported in PubChem BioAssay AID2147 (National Center for Advancing Translational Sciences (NCATS), 2009).
Several values for one entry are separate records, joined by “and”; a condition that tells them apart may be missing. Equal entries are not always repeated. Hit rate of the full screen: of about 230,000 compounds, about 3,600 (1.6%) were called active. Inconclusive results, whose numbers are uncertain, are shown with a selection of clear calls. The call rests on the fitted dose curve; in most records, active means well fitted inhibition curve with a large enough effect (not every such curve was filed as active); inconclusive means small, poorly fitted or top-dose-only effect, or another doubt; inactive means no such curve, though single readings can be large or run the other way. Potencies beside an inconclusive call are fits to weak or partial responses and may not hold up. The source holds several records for some structures; these can differ, active in one and inactive in another.

Molecular target: Lysine-specific demethylase 4E (Homo sapiens) (UniProt B2RXH2)
Test: qHTS Assay for Inhibitors of Human Jumonji Domain Containing 2E (JMJD2E)
Settings: JMJD2E catalytic domain, FDH-coupled NADH fluorescence (FDH is formaldehyde dehydrogenase); series mostly up to 57.1 µM
Further: nearly all actives have a fitted effect of over 50% in size.
Potency means the concentration at half of the fitted maximal effect; tags describe the fitted curve by direction and shape.

Sequence of UniProt B2RXH2 (B2RXH2 whole entry, looked up, the tested form may be a part): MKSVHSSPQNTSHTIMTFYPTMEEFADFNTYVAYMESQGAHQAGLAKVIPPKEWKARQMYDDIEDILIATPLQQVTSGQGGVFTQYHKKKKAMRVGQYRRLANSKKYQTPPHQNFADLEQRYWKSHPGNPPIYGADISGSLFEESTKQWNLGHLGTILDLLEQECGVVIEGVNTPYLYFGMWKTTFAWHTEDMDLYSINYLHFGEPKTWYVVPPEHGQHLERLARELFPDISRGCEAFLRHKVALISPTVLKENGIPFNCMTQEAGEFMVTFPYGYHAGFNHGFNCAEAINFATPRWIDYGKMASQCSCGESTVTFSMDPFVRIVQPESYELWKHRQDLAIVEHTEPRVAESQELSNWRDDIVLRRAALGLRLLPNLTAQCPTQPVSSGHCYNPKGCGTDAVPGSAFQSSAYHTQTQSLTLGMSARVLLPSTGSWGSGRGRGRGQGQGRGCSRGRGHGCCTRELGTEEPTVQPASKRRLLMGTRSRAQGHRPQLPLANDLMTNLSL

SMILES	Potency
C=CCSc1nnc(NC(=O)c2ccc(Cl)nc2)s1	inconclusive: 39.8 µM [inhibitor, single point]
O=C(c1ccco1)c1cn(Cc2ccccc2)c2ccccc12	inconclusive: 39.8 µM [inhibitor, single point]
O=C1C=C2C=C[C@H]3C[C@@]2(O1)[C@H]1CCCCN31	inactive
O=c1oc2cccnc2n1CCS(=O)(=O)c1ccc(F)cc1	inconclusive: 31.6 µM [inhibitor, partial curve]
Cc1cc(S(N)(=O)=O)ccc1N=Cc1c(O)n(-c2ccccc2)c(=O)[nH]c1=O	inconclusive: 28.2 µM [inhibitor, partial curve]
C[C@]12C=CC(=O)C=C1CCC1C2=CC[C@]2(C)[C@@H](C(=O)CN3CCN(c4cc(N5CCCC5)nc(N5CCCC5)n4)CC3)CC[C@@H]12 (stereo not given in full)	inconclusive: 2.82 µM [inhibitor, partial curve]
O=C1NC(=S)N(Cc2ccco2)C(=O)/C1=C\c1cccs1	active: 14.1 µM
C=C(CC1(CNP(=O)(c2ccccc2)c2ccccc2)CC1)c1ccccc1	inactive
O=[N+]([O-])c1cc([As](=O)(O)c2ccc(O)c([N+](=O)[O-])c2)ccc1O	inconclusive: 15.8 µM [inhibitor, partial curve]
N#CC(C#N)=NNc1cccc(Cl)c1	inactive
OC(c1ccccc1)(c1ccccc1)C1CCCN1 (stereo not given)	inconclusive: 31.6 µM [inhibitor, single point]
CCn1c(=O)n(CC(=O)N2CCC3(CC2)OCCO3)c(=O)c2ccccc21	inconclusive: 39.8 µM [inhibitor, single point]
O=C(c1cccn2c(=O)c3ccccc3nc12)N1CCC2(CC1)OCCO2	inconclusive: 28.2 µM [inhibitor, partial curve]
O=C1CC2OCC=C3CN4CC[C@@]56c7ccccc7N1C5C2C3CC46 (stereo not given in full)	inactive
COc1ccccc1N1C(=O)NC(=O)/C(=C/c2ccc3c(c2)Cc2ccccc2-3)C1=O	inconclusive: 31.6 µM [inhibitor, partial curve]
COc1ccc(-c2cc(=NCCC(=O)O)c3cc(C)ccc3o2)cc1	inconclusive: 28.2 µM [inhibitor, partial curve]
O=C(O)CCC(=O)NCCC1=c2ccccc2=N/C1=C\c1c(O)n(Cc2ccc(F)cc2)c(=S)[nH]c1=O	inconclusive: 28.2 µM [inhibitor, single point]
CC(C)OP(=O)(O)NC(=O)c1ccccc1	inconclusive: 31.6 µM [inhibitor, single point]
Cc1ccc2nc3c(cc2c1)CC1(C(=O)N(C)C(=O)N(C)C1=O)C1COCCN31 (stereo not given)	inconclusive: 39.8 µM [inhibitor, single point]
CCc1nc2ccc(N3CCN(C)CC3)cc2nc1CC	inconclusive: 35.5 µM [inhibitor, single point]
COc1ccc(OC)c(/C=N/OC(=O)Nc2ccc(Cl)cc2)c1	inconclusive: 28.2 µM [inhibitor, partial curve]
CC(=O)Nc1ccccc1C(=O)OCc1ccc(F)cc1	inconclusive: 35.5 µM [inhibitor, single point]
COc1ccc(-c2cc(=NCCCCCC(=O)O)c3cc(C)ccc3o2)cc1	inconclusive: 31.6 µM [inhibitor, partial curve]
O=C1NC(=O)C(=Cc2ccc(Oc3ccc([N+](=O)[O-])cc3)cc2)C(=O)N1	inactive

SMILES	Potency
Cc1ccc(N2C(=O)NC(=O)/C(=C\c3cc(C)n(-c4sc5c(c4C#N)CCCC5)c3C)C2=O)cc1	inactive
CN1CC=C(c2c[nH]c3ccccc23)CC1	inconclusive: 31.6 µM [inhibitor, single point]
Cc1cc(OCC(=O)O)c2c3c(c(=O)oc2c1)CCCC3	inconclusive: 31.6 µM [inhibitor, partial curve]
COc1ccc(-c2cc(-c3ccccc3)[n+](C)c(-c3ccccc3)c2)cc1	inconclusive: 35.5 µM [inhibitor, single point]
CCn1c(C)nc2cc(S(=O)(=O)Nc3ccc(C)cc3)ccc21	inconclusive: 39.8 µM [inhibitor, single point]
Cn1c(=O)n(CC(=O)N2CCC3(CC2)OCCO3)c(=O)c2ccccc21	inconclusive: 39.8 µM [inhibitor, single point]
c1ccc([C@H]2CNCc3ccccc32)cc1	inactive
OCc1cnc[nH]1	inconclusive: 0.224 µM [inhibitor, full curve]
CN(C)C(=O)Oc1cccc(-c2cn3cc(Cl)ccc3n2)c1	inconclusive: 28.2 µM [inhibitor, partial curve]
O=C1NCCN2CCCC12 (stereo not given)	inconclusive: 22.4 µM [inhibitor, single point]
O=C(c1ccc(CNS(=O)(=O)c2ccc(Br)cc2)cc1)N1CCC2(CC1)OCCO2	inactive
O=[N+]([O-])c1cccc(CN2CCN(Cc3ccc(Cl)cc3)CC2)c1	active: 28.2 µM
Cc1ccc(/C=C2/C(=O)NC(=O)N(CCc3ccc(F)cc3)C2=O)o1	inactive
CCCCCn1c(NC(=O)c2ccco2)c(C(=O)OCC)c2nc3ccccc3nc21	inconclusive: 25.1 µM [inhibitor, partial curve]
CSc1nc(N)c(N=Nc2ccc([As](=O)(O)O)cc2)c(=O)[nH]1	inactive
CC1=CC(=O)NP(=O)(Oc2ccc3ccccc3c2)N1 (stereo not given)	inactive
CNC(=O)Oc1ccc(-c2cn3cc(Cl)ccc3n2)cc1	inconclusive: 22.4 µM [inhibitor, partial curve]
CCc1c(C)c2ccc(OCC(N)=O)cc2oc1=O	inconclusive: 28.2 µM [inhibitor, partial curve]
CCCCn1c(N)c(C(=O)NCCN2CCOCC2)c2nc3ccccc3nc21	inconclusive: 28.2 µM [inhibitor, partial curve]
CN1C(=O)N(C)C(=O)C2(Cc3ccccc3N3CCCC32)C1=O (stereo not given)	inconclusive: 20 µM [inhibitor, single point]
Cc1ccc(C2C(S(C)(=O)=O)=C(O)C(=O)N2c2ccccc2)cc1 (stereo not given) (tested in a mixture with another compound)	inactive
Cc1ccc2cc(C=C(C#N)C#N)c(Cl)nc2c1	inconclusive: 31.6 µM [inhibitor, single point]
N#CC(C#N)=Cc1cc(O)c(O)c(O)c1	active: 2 µM
CS(=O)c1ccc(-c2nc(-c3ccc(F)cc3)c(-c3ccncc3)[nH]2)cc1 (stereo not given)	inconclusive: 25.1 µM [inhibitor, partial curve] and inconclusive: 35.5 µM [inhibitor, partial curve]

SMILES	Potency
CCCCC/C=C\C/C=C\C/C=C\C/C=C\CCCC(N)=O	inactive
CCCCCCCCCOc1ccc2[nH]cc(CCN)c2c1	active: 25.1 µM
O=c1[nH]c(=O)n(CC2CCCO2)c(O)c1/C=C1\C=Nc2ccccc21 (stereo not given)	inconclusive: 39.8 µM [inhibitor, single point]
COc1ccc2c(c1OC)C(=O)OC2C1c2cc3c(cc2CCN1C)OCO3 (stereo not given)	inconclusive: 39.8 µM [inhibitor, single point]
CN1C(=O)NC(=O)[C@]2(Cc3ccccc3N3CCN(c4ccccc4)CC32)C1=O (stereo not given in full)	inactive
CCOP(=O)(OCC)c1nc(-c2ccc(C)cc2)oc1NCc1ccccc1	inconclusive: 28.2 µM [inhibitor, partial curve]
Cc1cccc(OCC(=O)N2CCN(Cc3ccncc3)CC2)c1	inconclusive: 31.6 µM [inhibitor, single point]
CC1O[C@@H](Oc2c(-c3ccc(O)c(O)c3)oc3cc(O)cc(O)c3c2=O)C(O)C(O)C1O (stereo not given in full)	inconclusive: 17.8 µM [inhibitor, partial curve]
Nn1c(COc2ccc(Cl)cc2)n[nH]c1=S	inconclusive: 39.8 µM [inhibitor, single point]
O=C(O)c1cc(O)c(O)c(O)c1	active: 0.355 µM
Cc1ccc(-c2cn3c(=S)[nH]nc3s2)cc1	active: 6.31 µM
O=C1CCCN1C(=O)c1cncc(Br)c1	inactive
COc1ccccc1CCNCc1ccc(OC)c(OC)c1OC	active: 5.62 µM
Cc1ccccc1-n1c(O)c(/C=N/NC(=O)c2ccccc2O)c(=O)[nH]c1=S	inconclusive: 25.1 µM [inhibitor, single point]
CC(=O)N1CCC2(CC1)CC(=O)c1cc(OCC(=O)N3CCN(C)CC3)ccc1O2	inconclusive: 28.2 µM [inhibitor, partial curve]
Nc1ccc(C2(c3ccc(N)cc3)CCCCC2)cc1	inactive
CCCC(=O)N(C)C1=Nc2ccc(Cl)cc2C(c2ccccc2)=[N+]([O-])C1	inconclusive: 12.6 µM [inhibitor, partial curve]
Cc1nc2ccc(NC(=O)c3ccc(Cl)s3)cc2s1	inconclusive: 35.5 µM [inhibitor, single point]
Cc1ccc2c(c1)c(=O)c1c3n2CCN(CC#N)C3CC1 (stereo not given)	inconclusive: 25.1 µM [inhibitor, single point]
CN1CCc2nc(SCc3ccccc3Br)c(C#N)cc2C1	inconclusive: 31.6 µM [inhibitor, partial curve]
CCOC(=O)c1c(N)n(Cc2ccco2)c2nc3ccccc3nc12	inconclusive: 28.2 µM [inhibitor, partial curve]
CCC(C)NC(=O)c1c(N)n(CCCOC)c2nc3ccccc3nc12 (stereo not given)	inconclusive: 25.1 µM [inhibitor, partial curve]
